In article PMC12040169 (PLOS Biology, 2025):
The list shows a part of the results.

Each molecule was assayed on T1, C. trachomatis L2/434/Bu expressing GFP (CTL2-GFP). Conditions: total inclusion area; 28.5 h, 10 µM; inhibitor.
T1 construct: L2/434/Bu GFP intracellular growth in HeLa cells
Design: species or system HeLa; C. trachomatis total inclusion area by high-content imaging, normalised to DMSO
Method in brief: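 Bulk GFP and resorufin signals were read first. Wells were then fixed, stained with Hoechst and imaged to detect GFP inclusions and host nuclei. MICs followed the previously described calculation.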

Row | Compound | % of control remaining
1 | CC(C(=O)NC1CCCN(CC(F)(F)F)C1)n1cnc2ccccc21 (stereo not drawn) [CBK304185] | 40.2325
2 | COc1ccc(Nc2ncnc3oc(C)c(C)c23)cc1 [CBK288163] | 102.274
3 | NC1=NC(c2ccc3c(c2)OCO3)n2c(nc3ccccc32)N1 (stereo not drawn) [CBK269906] | 89.6246
4 | CS(=O)(=O)N1CCC(Oc2nccnc2OCc2ccc(Cl)c(Cl)c2)CC1 [CBK144910] | 101.251
5 | Nn1c(-c2cccs2)nc2ccccc2c1=O [CBK003650] | 46.0986
6 | CN(C(=O)c1c[nH]nc1C1CCCN(Cc2cc3ccccc3o2)C1)C1CCCCC1 (stereo not drawn) [CBK286492] | 101.678
7 | COc1cccc(C2SCC(=O)Nc3[nH]nc(C)c32)c1 (stereo not drawn) [CBK287981] | 103.714
8 | O=C(O)C(Cc1c[nH]c2ccccc12)NCC1CCCCC1 (stereo not drawn) [CBK287238] | 91.9908
9 | Cc1nn(Cc2ccc(F)cc2)c(=O)c2cc3sccc3n12 [CBK284059] | 77.0356
10 | CCN(CC)CCCCSc1ccc(O)cc1 [CBK261785C] | 96.408
11 | CSCCCNC(=O)C1(c2ccccc2)CCCC1 [CBK149526] | 93.0825
12 | O=C(Nc1ccc(S(=O)(=O)NCCc2ccccc2)cc1)c1ccncc1 [CBK268172] | 79.5624
13 | CC(C)(C)c1cc(C[C@H]2CNCC[C@H]2CC(=O)N2CCN(c3ccc(F)cc3)CC2)no1 [CBK288800] | 105.22
14 | Cc1ccc(S(=O)(=O)Nc2ccccc2C(=O)O)cc1[N+](=O)[O-] [CBK042374] | 79.4057
15 | CCc1ccccc1NC(=O)Cn1ncnc1Sc1nc2c(c(=O)n(C)c(=O)n2C)n1C [CBK265963] | 79.7856
16 | CN(C)CCC1CCCCN1C(=O)C1C2CCCCC21 (stereo not drawn) [CBK282055] | 130.732
17 | Cc1ccc(C(=O)C(NC(=O)c2cccs2)Nc2ccc(S(N)(=O)=O)cc2)cc1 (stereo not drawn) [CBK264897] | 103.169
18 | CSc1[nH]nc(N)c1-c1ccc([N+](=O)[O-])cc1 [CBK016751] | 97.8774
19 | CCc1cccc2c(CC(=O)NCCn3ccc(C)n3)c(C)[nH]c12 [CBK282698] | 115.534
20 | CC1(C)C(=O)N2CCN=C2c2ccccc21 [CBK009903] | 81.5198
21 | c1cnc(OC2CCN(CC3CCCCC3)CC2)c(OC2CCCCC2)n1 [CBK082879T] | 85.0896

Row | Compound | % of control remaining
22 | CC(SCCc1ccccn1)C(=O)O (stereo not drawn) [CBK026572] | 63.5405
23 | O=C(NCc1ccccc1)C(Cc1ccc([N+](=O)[O-])cc1)N1C(=O)c2ccccc2C1=O (stereo not drawn) [CBK261279] | 94.3017
24 | COc1ccccc1C(=O)N1CCN(Cc2cc(OC)c(O)c(OC)c2)CC1 [CBK263484] | 102.236
25 | Nc1nc(N)c2cccc(F)c2n1 [CBK025945] | 90.4728
26 | O=C(O)CCCC(=O)Nc1ccc([N+](=O)[O-])cc1O [CBK267384] | 104.814
27 | CCCCN1CCC(CNc2nccc3sc(S(=O)(=O)NC4CCC4)cc23)CC1 [CBK038275C] | 97.9106
28 | Cc1ccccc1S(=O)(=O)N(c1ccc(C(C)(C)C)cc1)C1CCNCC1 [CBK165074T] | 95.2449
29 | CC(CNC(=O)c1cccn(CC(=O)Nc2ccc(F)cc2)c1=O)N1CCCCCC1 (stereo not drawn) [CBK286123] | 111.605
30 | CN1CCN(CC(=O)Nc2sc3c(c2C(=O)NCc2ccccc2)CCCC3)CC1 [CBK268207] | 86.8727
31 | CC1CCCCN1C(=O)CCn1c(-c2cccnc2)cc2cccnc21 (stereo not drawn) [CBK282692] | 107.689
32 | O=C(O)c1cccc(NC(=O)c2c(C(=O)O)cccc2[N+](=O)[O-])c1 [CBK261096] | 104.848
33 | COc1cc(C(O)CNC(=O)c2cnc(-c3ccc(F)cc3)c(-c3cccc(N)c3)c2)ccc1O (stereo not drawn) [CBK038032] | 69.5507
34 | OCCOc1cccc(-c2nnco2)c1 [CBK000033] | 99.334
35 | Cc1oc2[nH]c(CN(C)CCOc3ccc(Cl)cc3)nc(=N)c2c1C(=O)O [CBK279463] | 113.956
36 | Fc1ccc(CCNc2ccc3nncn3n2)cc1 [CBK287909] | 92.4394
37 | CC(NC(=O)C1CCN(Cc2cccs2)CC1)c1ccc(F)cc1 (stereo not drawn) [CBK148041] | 121.859
38 | O=C1CC(C(=O)N2CCc3ncc(Cl)cc3C2)c2ccccc2N1 (stereo not drawn) [CBK284976] | 112.161
39 | Cc1ccn2c(CN3CCC(n4nc(C)cc4C)CC3)c(C)nc2c1 [CBK281616] | 79.8495
40 | Cc1ncncc1C(=O)N1CCc2sccc2C1c1ccccc1 (stereo not drawn) [CBK281386] | 85.7631
41 | NC(=O)c1ccccc1/N=C/c1ccc([N+](=O)[O-])o1 [CBK261675] | 52.3495
42 | O=C(CCn1c(CO)nc2ccccc21)c1ccccc1 [CBK296947] | 59.5402

Row | Compound | % of control remaining
43 | Cn1cccc1C(=O)OCC(=O)N1CCCCC1 [CBK305903] | 65.4621
44 | COC(=O)C1=C(C)N(c2ccc(C(=O)O)cc2)C(=O)NC1c1cccc(OC)c1OC (stereo not drawn) [CBK295355] | 113.613
45 | Cc1cc2nc(SCCO)[nH]c2cc1C [CBK027546] | 62.0192
46 | CCOc1cccc(-c2cncc(N3CCCC3CO)n2)c1 (stereo not drawn) [CBK066004] | 104.817
47 | CCc1nc2ccc(C(=O)Nc3ccc(NC(C)=O)cc3)cn2c1N(C)C(=O)Cc1ccccc1 [CBK146855] | 90.1054
48 | CC(CNC(=O)Cc1ccc(C(F)(F)F)cc1[N+](=O)[O-])N1CCc2ccccc2C1 (stereo not drawn) [CBK298292] | 99.6096
49 | Cc1ccc(S(=O)(=O)Oc2c(C=C3C(=O)CC(C)(C)CC3=O)[nH]c3ccccc23)cc1 [CBK263464] | 101.142
50 | CC(Cc1ccc(N(C)C)cc1)NC(=O)C1CN(S(=O)(=O)c2ccc(F)cc2)C1 (stereo not drawn) [CBK285942] | 128.052
51 | COC(=O)c1ccc(NC(=O)c2oc3ccc(Br)cc3c2C)cc1 [CBK296758] | 85.6499
52 | Cc1onc(-c2ccccc2)c1C(=O)N1CCC(C(N)=O)CC1 [CBK158721] | 94.4461
53 | O=C(c1ccccc1)c1ccccc1-n1nccn1 [CBK013849] | 88.8188
54 | COC(=O)c1ccccc1NC(=O)C1CCCN(S(=O)(=O)c2cc(Cl)ccc2Cl)C1 (stereo not drawn) [CBK268797] | 81.3596
55 | Cc1nn2cc(CNC(=O)C3Cc4ccccc4O3)nc2s1 (stereo not drawn) [CBK307498] | 81.6454
56 | CC(NC(=O)c1ccccc1Cn1cncn1)C1CC2CCC1C2 (stereo not drawn) [CBK281654] | 94.3099
57 | Oc1cccc(-c2nccnc2N[C@@H]2CCN(Cc3ccccc3)C2)c1 [CBK037017] | 118.075
58 | NCC1CCN(c2cc(C(F)(F)F)c3scc(C(=O)NCc4cccc(F)c4F)c3n2)CC1 [CBK036391T] | 16.1588
59 | COc1cc(Nc2cncc(-c3ccccc3CO)n2)cc(OC)c1OC [CBK037160] | 94.6674
60 | Cc1ncsc1C(=O)N1CCC(c2cccc(Cc3ccc(C(F)(F)F)cc3)n2)CC1 [CBK286216] | 61.307
61 | CCNC(=O)c1ccc(-n2cccn2)c(C#Cc2ccccn2)c1 [CBK283125] | 105.47
62 | Cc1ccc(C)c(Nc2nc3nonc3nc2N2CCOCC2)c1 [CBK262491] | 55.2194
63 | COc1ccc2ncc3c(-c4ccccc4)n[nH]c3c2c1 [CBK288052] | 103.919

Row | Compound | % of control remaining
64 | CCN(C(=O)c1cc2ccc(N(C)C)cc2[nH]1)C1CCN(C)CC1 [CBK281867] | 67.4299
65 | O=S(=O)(NCCOCc1ccccc1)c1ccc2c(c1)Cc1ccccc1-2 [CBK266032] | 104.269
66 | C=CCNC(=O)CCc1nc(-c2cccc(OC)c2)no1 [CBK268981] | 88.0419
67 | CCOC(=O)c1c(NC(=O)CSc2nnc3ccccn23)sc2c1CCC(C)C2 (stereo not drawn) [CBK265668] | 125.101
68 | S=C(NCc1ccc(Cl)cc1)Nc1ccncc1 [CBK016651] | 95.2564
69 | Cc1cccn2cc(C(=O)N(C)CCn3ccnc3C)nc12 [CBK281735] | 101.856
70 | Cc1cc2ncn(CC(=O)Nc3c(C)noc3C)c2cc1C [CBK200222] | 87.2598
71 | CN(Cc1ccc(CN2CCOC(c3ccccc3)C2)o1)S(C)(=O)=O (stereo not drawn) [CBK306808] | 83.6972
72 | Cc1ccc(S(=O)(=O)NCC(c2ccccc2)N2CCN(CCC#N)CC2)cc1 (stereo not drawn) [CBK262865] | 92.9737
73 | CCCC(=O)Nc1ccc(-c2csc(NC(=O)C3CCCO3)n2)cc1 (stereo not drawn) [CBK305854] | 22.5325
74 | OC1(Cn2cnc3ccccc32)CCN(Cc2cccc(F)c2)CC1 [CBK284663] | 95.7061
75 | CC(c1ccc(F)c(F)c1)N(C)C(=O)Cn1cnnc1[S+](C)[O-] (stereo not drawn) [CBK305311] | 22.0368
76 | CC1CC(C)CN(CCCNS(=O)(=O)c2ccc3c(c2)oc(=O)n3C)C1 (stereo not drawn) [CBK268695] | 70.0384
77 | CCOc1ccccc1N(CC(=O)O)S(=O)(=O)c1ccc(Cl)cc1 [CBK287144] | 91.2437
78 | c1ccc(CN2CC[C@H](Nc3nccnc3-c3cccnc3)C2)cc1 [CBK036978] | 101.283
79 | Nc1ncc(-c2ccc(C(=O)N3CCOCC3)cc2)cc1C(=O)Nc1ccc(C(F)(F)F)cc1 [CBK160204] | 75.2132
80 | N#Cc1ccccc1N1CCN(c2cncc(-c3cccc4cccnc34)n2)CC1 [CBK037366] | 104.674
81 | COc1cc(NC(=O)Nc2ccc3ccc(Cl)nc3n2)cc(OC)c1OC [CBK115933] | 84.5568
